# Reference: the supplement of paper PMC8728848
# The other results are listed elsewhere or left out.
# B1: PX9937D-bvu-500-26-500 (Bacteroides vulgatus) (protein)
# chain: DPVSDITDLNYWKTPEQFDSFVFGLHSRFRSHSWNMFLLGEARSDVFGGIPFGGEATQGMERFPYNTLNAENPGISGFGDLYQNINQMNLFISRTLHTDVLTESARNYYLGQVYGLRAYYMYQLYRSWGDVVFTEEPSLGFEVGKLAKAATPAAEIFEQVKKDIESSLSYFGSDYTIKEKKSLWSKAATLMLKADVYLWSAHRDGGEGDARTAKNALVDIQNNISRSNLDLMDTYQGVFAYDNKGNKEIIFTIHNELFEYNLWNGNNDLFPQADYLGKFYNADGTLINTSVENNFGIMRLMVKLENFKKFLPGDTRRDVTLKDVYNKVENGKLELVGVYPHKYWGVMNGSTRVRCDDYPIYRYSDLLLMLAEAKVLLGEDPATEINRVRRRAFGDAYDASTVGFPNQEVDKRPADAVLQERLFEFMLEGKRWYDLRRFGDSYVLDYTPAEPARLLWPINQGALTNNPLLKQTVGY
# How the values were obtained:
# Assay in all cases: glycan array binding signal (z-score within array); higher = stronger binding
# Settings in all cases: glycan notation: IUPAC condensed, linker removed
# [1] = molecular target: Gal(b1-4)GlcNAc(b1-6)GalNAc
# Outline: (§1)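 The binding signal is a Z-score computed within each array. Data were drawn from 3228 arrays in the Consortium for Functional Glycomics database, restricted to those with a known protein sequence. Scores were averaged over arrays of the same protein sequence at different concentrations or buffers, and over linkers, and negative values can be taken as non-binding.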
# [2] = molecular target: Gal(b1-4)GlcNAc(b1-6)[Gal(b1-3)]GalNAc
# Outline: as §1
# [3] = molecular target: Gal(b1-4)GlcNAc(b1-6)[Gal(b1-4)GlcNAc(b1-3)]GalNAc
# Outline: as §1
# [4] = molecular target: Gal(b1-4)GlcNAc6P
# Outline: as §1
# [5] = molecular target: Gal(b1-6)Gal
# Outline: as §1
# [6] = molecular target: Gal3S(b1-3)GalNAc
# Outline: as §1
# [7] = molecular target: Gal3S(b1-3)GlcNAc
# Outline: as §1
# [8] = molecular target: Gal3S(b1-3)[Fuc(a1-4)]GlcNAc
# Outline: as §1
# [9] = molecular target: Gal3S(b1-4)Glc
# Outline: as §1
# [10] = molecular target: Gal3S(b1-4)Glc6S
# Outline: as §1
# [11] = molecular target: Gal3S(b1-4)GlcNAc
# Outline: as §1
# [12] = molecular target: Gal3S(b1-4)[Fuc(a1-3)]Glc6S
# Outline: as §1
# [13] = molecular target: Gal3S(b1-4)[Fuc(a1-3)]GlcNAc
# Outline: as §1
# [14] = molecular target: Gal3S(b1-4)[Fuc(a1-3)]GlcNAc6S
# Outline: as §1
# [15] = molecular target: Gal3S4S(b1-4)GlcNAc
# Outline: as §1
# [16] = molecular target: Gal3S6S(b1-4)GlcNAc
# Outline: as §1
# [17] = molecular target: Gal3S6S(b1-4)GlcNAc6S
# Outline: as §1
# [18] = molecular target: Gal4S(b1-4)GlcNAc
# Outline: as §1
# [19] = molecular target: Gal4S6S(b1-4)GlcNAc
# Outline: as §1
# [20] = molecular target: Gal6P(b1-4)GlcNAc
# Outline: as §1
# [21] = molecular target: Gal6S(b1-3)GlcNAc
# Outline: as §1
# [22] = molecular target: Gal6S(b1-3)GlcNAc6S
# Outline: as §1
# [23] = molecular target: Gal6S(b1-4)Glc
# Outline: as §1
# [24] = molecular target: Gal6S(b1-4)Glc6S
# Outline: as §1
# [25] = molecular target: Gal6S(b1-4)GlcNAc
# Outline: as §1
# [26] = molecular target: Gal6S(b1-4)GlcNAc6S
# Outline: as §1
# [27] = molecular target: GalNAc(a1-3)Gal
# Outline: as §1
# [28] = molecular target: GalNAc(a1-3)GalNAc
# Outline: as §1
# [29] = molecular target: GalNAc(a1-3)GalNAc(b1-3)Gal(a1-4)Gal(b1-4)Glc
# Outline: as §1
# [30] = molecular target: GalNAc(a1-3)GalNAc(b1-3)Gal(a1-4)Gal(b1-4)GlcNAc
# Outline: as §1
# [31] = molecular target: GalNAc(b1-3)Gal
# Outline: as §1
# [32] = molecular target: GalNAc(b1-3)Gal(a1-4)Gal(b1-4)GlcNAc
# Outline: as §1
# [33] = molecular target: GalNAc(b1-3)Gal(a1-4)Gal(b1-4)GlcNAc(b1-3)Gal(b1-4)Glc
# Outline: as §1
# [34] = molecular target: GalNAc(b1-3)Gal(a1-6)Gal(b1-4)Glc
# Outline: as §1
# [35] = molecular target: GalNAc(b1-3)GalNAc
# Outline: as §1
# [36] = molecular target: GalNAc(b1-3)GlcNAc
# Outline: as §1
# [37] = molecular target: GalNAc(b1-4)Gal(b1-4)Glc
# Outline: as §1
# [38] = molecular target: GalNAc(b1-4)GlcNAc
# Outline: as §1
binder,measurement,setting,value
B1,glycan array binding signal (z-score),[1],-0.014
same,glycan array binding signal (z-score),[2],0.19
same,glycan array binding signal (z-score),[3],-0.31
same,glycan array binding signal (z-score),[4],0.132
same,glycan array binding signal (z-score),[5],-0.175
same,glycan array binding signal (z-score),[6],0.001
same,glycan array binding signal (z-score),[7],-0.008
same,glycan array binding signal (z-score),[8],-0.09
same,glycan array binding signal (z-score),[9],0.35
same,glycan array binding signal (z-score),[10],-0.258
same,glycan array binding signal (z-score),[11],-0.143
same,glycan array binding signal (z-score),[12],0.78
same,glycan array binding signal (z-score),[13],0.119
same,glycan array binding signal (z-score),[14],-0.235
same,glycan array binding signal (z-score),[15],-0.325
same,glycan array binding signal (z-score),[16],-0.426
same,glycan array binding signal (z-score),[17],0.182
same,glycan array binding signal (z-score),[18],-0.435
same,glycan array binding signal (z-score),[19],-0.402
same,glycan array binding signal (z-score),[20],-0.266
same,glycan array binding signal (z-score),[21],1.2
same,glycan array binding signal (z-score),[22],0.946
same,glycan array binding signal (z-score),[23],-0.225
same,glycan array binding signal (z-score),[24],0.307
same,glycan array binding signal (z-score),[25],-0.446
same,glycan array binding signal (z-score),[26],-0.22
same,glycan array binding signal (z-score),[27],0.291
same,glycan array binding signal (z-score),[28],-0.228
same,glycan array binding signal (z-score),[29],-0.432
same,glycan array binding signal (z-score),[30],-0.65
same,glycan array binding signal (z-score),[31],-0.465
same,glycan array binding signal (z-score),[32],-0.367
same,glycan array binding signal (z-score),[33],-0.005
same,glycan array binding signal (z-score),[34],-0.122
same,glycan array binding signal (z-score),[35],-0.663
same,glycan array binding signal (z-score),[36],-0.418
same,glycan array binding signal (z-score),[37],-0.02
same,glycan array binding signal (z-score),[38],1.34
